Results reported in publication PMC9911399, “Two distinct binding modes provide the RNA-binding protein RbFox with extraordinary sequence specificity”.
Residue numbers refer to the chain shown, from its start. The list shows a part of the results.

T1: RBFOX1 RRM (Homo sapiens, UniProt Q9NWB1 109-208)
T1 sequence: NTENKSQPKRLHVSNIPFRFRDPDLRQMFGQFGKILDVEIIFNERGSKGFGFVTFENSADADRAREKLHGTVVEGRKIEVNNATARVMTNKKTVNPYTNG

B1: CCUCUAU (DNA:RNA)
RNA: GGGAGACCGGAAUUCAGAUUGUCCCCUCUAUUUAAAUCCCGUCGUAGCCACCA
DNA 1: CAATCTGAATTCCGGTCTCCC
DNA 2: TGGTGGCTACGACGGGATT
B2: UUAAUAG (DNA:RNA)
RNA: B1 RNA with C25U, C26U, U27A, C28A, U31G
DNA 1: CAATCTGAATTCCGGTCTCCC
DNA 2: TGGTGGCTACGACGGGATT
B3: CACGACC (DNA:RNA)
RNA: B1 RNA with C26A, U27C, C28G, U29A, A30C, U31C
DNA 1: CAATCTGAATTCCGGTCTCCC
DNA 2: TGGTGGCTACGACGGGATT
B4: ACCAAUG (DNA:RNA)
RNA: B1 RNA with C25A, U27C, C28A, U29A, A30U, U31G
DNA 1: CAATCTGAATTCCGGTCTCCC
DNA 2: TGGTGGCTACGACGGGATT
B5: CGUACCU (DNA:RNA)
RNA: B1 RNA with C26G, C28A, U29C, A30C
DNA 1: CAATCTGAATTCCGGTCTCCC
DNA 2: TGGTGGCTACGACGGGATT
B6: CCGGCGU (DNA:RNA)
RNA: B1 RNA with U27G, C28G, U29C, A30G
DNA 1: CAATCTGAATTCCGGTCTCCC
DNA 2: TGGTGGCTACGACGGGATT
B7: ACCUUAU (DNA:RNA)
RNA: B1 RNA with C25A, U27C, C28U
DNA 1: CAATCTGAATTCCGGTCTCCC
DNA 2: TGGTGGCTACGACGGGATT
B8: UGUACCG (DNA:RNA)
RNA: B1 RNA with C25U, C26G, C28A, U29C, A30C, U31G
DNA 1: CAATCTGAATTCCGGTCTCCC
DNA 2: TGGTGGCTACGACGGGATT
B9: GAUACUC (DNA:RNA)
RNA: B1 RNA with C25G, C26A, C28A, U29C, A30U, U31C
DNA 1: CAATCTGAATTCCGGTCTCCC
DNA 2: TGGTGGCTACGACGGGATT
B10: UAGUCCA (DNA:RNA)
RNA: GGGAGACCGGAAUUCAGAUUGUCCUAGUCCAUUAAAUCCCGUCGUAGCCACCA
DNA 1: CAATCTGAATTCCGGTCTCCC
DNA 2: TGGTGGCTACGACGGGATT
B11: AUAAGCG (DNA:RNA)
RNA: B10 RNA with U25A, A26U, G27A, U28A, C29G, A31G
DNA 1: CAATCTGAATTCCGGTCTCCC
DNA 2: TGGTGGCTACGACGGGATT
B12: AUGCUAU (DNA:RNA)
RNA: B1 RNA with C25A, C26U, U27G
DNA 1: CAATCTGAATTCCGGTCTCCC
DNA 2: TGGTGGCTACGACGGGATT
B13: CGUGCUU (DNA:RNA)
RNA: B1 RNA with C26G, C28G, U29C, A30U
DNA 1: CAATCTGAATTCCGGTCTCCC
DNA 2: TGGTGGCTACGACGGGATT
B14: GGGGGAC (DNA:RNA)
RNA: B1 RNA with C25G, C26G, U27G, C28G, U29G, U31C
DNA 1: CAATCTGAATTCCGGTCTCCC
DNA 2: TGGTGGCTACGACGGGATT
B15: GGAGCAC (DNA:RNA)
RNA: B1 RNA with C25G, C26G, U27A, C28G, U29C, U31C
DNA 1: CAATCTGAATTCCGGTCTCCC
DNA 2: TGGTGGCTACGACGGGATT
B16: UCCGUGG (DNA:RNA)
RNA: B1 RNA with C25U, U27C, C28G, A30G, U31G
DNA 1: CAATCTGAATTCCGGTCTCCC
DNA 2: TGGTGGCTACGACGGGATT
B17: CUGACAA (DNA:RNA)
RNA: B10 RNA with U25C, A26U, U28A, C30A
DNA 1: CAATCTGAATTCCGGTCTCCC
DNA 2: TGGTGGCTACGACGGGATT
B18: CCGGGCG (DNA:RNA)
RNA: B1 RNA with U27G, C28G, U29G, A30C, U31G
DNA 1: CAATCTGAATTCCGGTCTCCC
DNA 2: TGGTGGCTACGACGGGATT
B19: AAGGUUG (DNA:RNA)
RNA: B10 RNA with U25A, U28G, C29U, C30U, A31G
DNA 1: CAATCTGAATTCCGGTCTCCC
DNA 2: TGGTGGCTACGACGGGATT
B20: UUACCCA (DNA:RNA)
RNA: B10 RNA with A26U, G27A, U28C
DNA 1: CAATCTGAATTCCGGTCTCCC
DNA 2: TGGTGGCTACGACGGGATT
B21: AUCCUCG (DNA:RNA)
RNA: B1 RNA with C25A, C26U, U27C, A30C, U31G
DNA 1: CAATCTGAATTCCGGTCTCCC
DNA 2: TGGTGGCTACGACGGGATT
B22: GGGCAUA (DNA:RNA)
RNA: B10 RNA with U25G, A26G, U28C, C29A, C30U
DNA 1: CAATCTGAATTCCGGTCTCCC
DNA 2: TGGTGGCTACGACGGGATT
B23: AUUGGCU (DNA:RNA)
RNA: B1 RNA with C25A, C26U, C28G, U29G, A30C
DNA 1: CAATCTGAATTCCGGTCTCCC
DNA 2: TGGTGGCTACGACGGGATT
B24: CCAUCCC (DNA:RNA)
RNA: B10 RNA with U25C, A26C, G27A, A31C
DNA 1: CAATCTGAATTCCGGTCTCCC
DNA 2: TGGTGGCTACGACGGGATT
B25: CGCAACU (DNA:RNA)
RNA: B1 RNA with C26G, U27C, C28A, U29A, A30C
DNA 1: CAATCTGAATTCCGGTCTCCC
DNA 2: TGGTGGCTACGACGGGATT
B26: GGCCGAU (DNA:RNA)
RNA: B1 RNA with C25G, C26G, U27C, U29G
DNA 1: CAATCTGAATTCCGGTCTCCC
DNA 2: TGGTGGCTACGACGGGATT
B27: AGACAAG (DNA:RNA)
RNA: B1 RNA with C25A, C26G, U27A, U29A, U31G
DNA 1: CAATCTGAATTCCGGTCTCCC
DNA 2: TGGTGGCTACGACGGGATT
B28: GUUGGGC (DNA:RNA)
RNA: B1 RNA with C25G, C26U, C28G, U29G, A30G, U31C
DNA 1: CAATCTGAATTCCGGTCTCCC
DNA 2: TGGTGGCTACGACGGGATT
B29: CGAUUAC (DNA:RNA)
RNA: B1 RNA with C26G, U27A, C28U, U31C
DNA 1: CAATCTGAATTCCGGTCTCCC
DNA 2: TGGTGGCTACGACGGGATT
B30: CCUUCUU (DNA:RNA)
RNA: B1 RNA with C28U, U29C, A30U
DNA 1: CAATCTGAATTCCGGTCTCCC
DNA 2: TGGTGGCTACGACGGGATT
B31: AAUGGAC (DNA:RNA)
RNA: B1 RNA with C25A, C26A, C28G, U29G, U31C
DNA 1: CAATCTGAATTCCGGTCTCCC
DNA 2: TGGTGGCTACGACGGGATT

Biological target: T1, RBFOX1 RRM
Assay: EMSA; HiTS-Eq, 1 nM pool, 10 min; buffer printed only for the single-RNA assays: 10 mM Tris pH 7.5, 150 mM NaCl, 3.4 mM EDTA, 0.001% NP-40, 30 C
Details: tags: His6 N-terminal (pET28a); label: 5' 32P
Method in brief: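 Purified RbFox RRM, wild type or mutant, was incubated for 10 min in 50 µL with 1 nM of a 5′-radiolabelled RNA pool carrying 7 randomized nucleotides, whose flanks were annealed to DNA oligonucleotides, over a series of increasing protein concentrations. Unbound RNA was resolved on 8% native PAGE, cut out, reverse-transcribed, barcoded by PCR and sequenced on an Illumina HiSeq 2500. Relative association constants were derived from changes in read counts for each RNA species versus the control reaction and normalised to the cognate motif.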

Binder | binding signal
B1 | 0.00465 KA relative to UGCAUGU
B2 | 0.0116 KA relative to UGCAUGU
B3 | 0.00182 KA relative to UGCAUGU
B4 | 0.00241 KA relative to UGCAUGU
B5 | 0.00481 KA relative to UGCAUGU
B6 | 0.0138 KA relative to UGCAUGU
B7 | 0.00285 KA relative to UGCAUGU
B8 | 0.00825 KA relative to UGCAUGU
B9 | 0.0126 KA relative to UGCAUGU
B10 | 0.00652 KA relative to UGCAUGU
B11 | 0.00479 KA relative to UGCAUGU
B12 | 0.00716 KA relative to UGCAUGU
B13 | 0.0157 KA relative to UGCAUGU
B14 | 0.0152 KA relative to UGCAUGU
B15 | 0.0157 KA relative to UGCAUGU
B16 | 0.00932 KA relative to UGCAUGU

Binder | binding signal
B17 | 0.00763 KA relative to UGCAUGU
B18 | 0.0149 KA relative to UGCAUGU
B19 | 0.0131 KA relative to UGCAUGU
B20 | 0.00135 KA relative to UGCAUGU
B21 | 0.00352 KA relative to UGCAUGU
B22 | 0.0114 KA relative to UGCAUGU
B23 | 0.0149 KA relative to UGCAUGU
B24 | 0.00746 KA relative to UGCAUGU
B25 | 0.00615 KA relative to UGCAUGU
B26 | 0.0164 KA relative to UGCAUGU
B27 | 0.00636 KA relative to UGCAUGU
B28 | 0.0131 KA relative to UGCAUGU
B29 | 0.00527 KA relative to UGCAUGU
B30 | 0.00641 KA relative to UGCAUGU
B31 | 0.0103 KA relative to UGCAUGU
